Values of other authors as cited in article PMC11006913.
The list shows a part of the results.

molecular target: HOXD13 I322L (Homo sapiens) (UniProt P35453); conditions: PBM; conditions not shown; double strand, one strand shown; scale: upbm affinity estimate (log intensity, higher = more binding, comparable within an allelic series)

Sequence	binding signal
AGTAGTTA [8-mer AGTAGTTA]	11.1
GATGGTTA [8-mer GATGGTTA]	10.8
GTTAACGA [8-mer GTTAACGA]	12.3
GTCACTAA [8-mer GTCACTAA]	10.7
CCCTTTTA [8-mer CCCTTTTA]	10.9
ATTTAACA [8-mer ATTTAACA]	11.9
AGGTAGTA [8-mer AGGTAGTA]	10.8
GGTAGTAA [8-mer GGTAGTAA]	11
ATAGTCAA [8-mer ATAGTCAA]	10.7
CGTAAACC [8-mer CGTAAACC]	11.9
CTCGTGAA [8-mer CTCGTGAA]	12
ACTAACAA [8-mer ACTAACAA]	11
CAGTAAAA [8-mer CAGTAAAA]	11.8
CTCGTATA [8-mer CTCGTATA]	11.9
GTAAAACA [8-mer GTAAAACA]	11.5
TGTAAAAA [8-mer TGTAAAAA]	11.8
ATTTAACG [8-mer ATTTAACG]	11.8
AGTTTACG [8-mer AGTTTACG]	11.8
ACCTTTTA [8-mer ACCTTTTA]	11
ATCGTAAC [8-mer ATCGTAAC]	11.7
ATTTACTA [8-mer ATTTACTA]	11.8
CACGTAAA [8-mer CACGTAAA]	11.8
GTTAACAA [8-mer GTTAACAA]	11.9
ATTGTTAA [8-mer ATTGTTAA]	12
CAGTAAAC [8-mer CAGTAAAC]	11.9

molecular target: HOXD13 N298S (Homo sapiens) (UniProt P35453); conditions: PBM; conditions not shown; double strand, one strand shown; scale: upbm affinity estimate (log intensity, higher = more binding, comparable within an allelic series)

Sequence	binding signal
AGTAGTTA [8-mer AGTAGTTA]	11.4
AATACTAA [8-mer AATACTAA]	10.9
GATGGTTA [8-mer GATGGTTA]	11
GTCACTAA [8-mer GTCACTAA]	11.1
ATGTATCG [8-mer ATGTATCG]	10.8
CTACTTTA [8-mer CTACTTTA]	11.1
AATAACCC [8-mer AATAACCC]	11.4
CCCTTTTA [8-mer CCCTTTTA]	11.1
ATAATAAA [8-mer ATAATAAA]	12.5
AGGTAGTA [8-mer AGGTAGTA]	10.9
GGTAGTAA [8-mer GGTAGTAA]	11.2
ATAGTCAA [8-mer ATAGTCAA]	10.9
ATGTCTAA [8-mer ATGTCTAA]	11
AATTATAT [8-mer AATTATAT]	12.4
ATATAAAC [8-mer ATATAAAC]	12.4
ACTAACAA [8-mer ACTAACAA]	11.2
AATTTATA [8-mer AATTTATA]	12.5
ATAAAACA [8-mer ATAAAACA]	12.4
ATATTGGA [8-mer ATATTGGA]	11.3
GTAAAACA [8-mer GTAAAACA]	11.7
AGTTTACG [8-mer AGTTTACG]	11.8
ACCTTTTA [8-mer ACCTTTTA]	11.3
ATCGTAAC [8-mer ATCGTAAC]	11.6
CACGTAAA [8-mer CACGTAAA]	11.9
